This is an account of results in US20250101074A1 (Affibody, published 2025).

Assay [1] has as its target T1, human IL-17A (human, UniProt Q16552 20-155, limits assumed).
T1 sequence: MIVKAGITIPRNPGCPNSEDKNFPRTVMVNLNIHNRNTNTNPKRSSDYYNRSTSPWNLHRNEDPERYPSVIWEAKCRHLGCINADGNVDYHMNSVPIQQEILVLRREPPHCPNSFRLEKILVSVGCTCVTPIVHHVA
The assay can be described thus: cell-based or functional assay.

The target in assay [2] is T1, human IL-17A. The assay can be described thus: SPR (Biacore), immobilized hIL-17A, 1:1 model. As to the method: One flow cell surface on the chip was activated and deactivated for use as blank during analyte injections. In the kinetic experiment, HBS-EP was used as running buffer and the flow rate was 50 μl/min. […] Kinetic constants were calculated from the sensorgrams using the Langmuir 1:1 model of BiaEvaluation software 4.1 (GE Healthcare).

B1: His6-Z10241 (designed binder)
chain: MGSSHHHHHHLQVDAKYAKEADDAAVEIADLPNLTWDQWYAFISKLRDDPSQSSELLSEAKKLNDSQAPKVD
For B1, the “IC50, IL-17A induced IL-6 production, NHDF cells” value (from here on “IC50 … NHDF cells”) with human IL-17A [1] was found to be 5.3 nM. In the assay with human IL-17A [2], this molecule displayed a dissociation constant (Kd) of 2.2 nM, a dissociation rate constant (koff) of 0.0012 s⁻¹ and a kon of 520000 M⁻¹ s⁻¹.

B2: His6-Z10718 (designed binder)
chain: MGSSHHHHHHLQVDAKYAKEADDAAVEIADLPNLTWDQWHAFIQKLRDDPSQSSELLSEAKKLNDSQAPKVD
Consider B2, for which the “IC50 … NHDF cells” value with human IL-17A [1] stood at 28 nM.

B3: His6-Z12256 (designed binder)
chain: MGSSHHHHHHLQVDAKYAKEADDAAVEIADLPNLTWDQWYAFIAKLRDDPSQSSELLSEAKKLNDSQAPKVD
As to B3, in the assay with human IL-17A [1], the “IC50 … NHDF cells” value was found to be 4.4 nM. In the assay with human IL-17A [2], the affinity, expressed as Kd, was 3.4 nM; the koff came to 0.0012 s⁻¹; the kon amounted to 350000 M⁻¹ s⁻¹.

B4: His6-Z12192 (designed binder)
chain: MGSSHHHHHHLQVDAKYAKEADDAAVEIADLPNLTWAQWEAFISKLRDDPSQSSELLSEAKKLNDSQAPKVD
B4: in the assay with human IL-17A [1], the “IC50 … NHDF cells” value came out at 28 nM. For the same molecule, in the assay with human IL-17A [2], the affinity, expressed as Kd, was 12 nM; the off-rate constant (koff) is 0.0056 s⁻¹; the on-rate constant (kon) stood at 460000 M⁻¹ s⁻¹.

B5: His6-Z12275 (designed binder)
chain: MGSSHHHHHHLQVDAKYAKEADDAAVEIADLPNLTWDQWFAFINKLRDDPSQSSELLSEAKKLNDSQAPKVD
Consider B5, for which the “IC50 … NHDF cells” value with human IL-17A [1] was determined as 4.8 nM. In the assay with human IL-17A [2], this molecule yielded a Kd of 2 nM, a koff of 0.0011 s⁻¹ and an on-rate constant (kon) of 520000 M⁻¹ s⁻¹.

B6: His6-Z10859 (designed binder)
chain: MGSSHHHHHHLQVDAKYAKEADFAAVEIAELPNLTWDQWYAFIQKLRDDPSQSSELLSEAKKLNDSQAPKVD
Regarding B6, the “IC50 … NHDF cells” value in the assay with human IL-17A [1] is 26 nM. In addition, in the assay with human IL-17A [2], binding was characterised by a dissociation constant (Kd) of 12 nM, the dissociation rate constant (koff) was 0.0068 s⁻¹ and the on-rate constant (kon) amounted to 560000 M⁻¹ s⁻¹.

B7: His6-Z10681 (designed binder)
chain: MGSSHHHHHHLQVDAKYAKEADEAAVEIAELPNLTWDQWYAFIRKLRDDPSQSSELLSEAKKLNDSQAPKVD
Turning to B7, the “IC50 … NHDF cells” value with human IL-17A [1] turned out to be 25 nM. Also, in the assay with human IL-17A [2], binding was characterised by a dissociation constant (Kd) of 5.2 nM, the off-rate constant (koff) was 0.0035 s⁻¹ and the kon came to 670000 M⁻¹ s⁻¹.

B8: His6-Z10675 (designed binder)
chain: MGSSHHHHHHLQVDAKYAKEADDAAVEIADLPNLTWDQWFAFIQKLRDDPSQSSELLSEAKKLNDSQAPKVD
With B8, the “IC50 … NHDF cells” value in the assay with human IL-17A [1] is 5.3 nM. Besides, in the assay with human IL-17A [2], the dissociation constant Kd was 1.9 nM, the koff was found to be 0.0011 s⁻¹ and the kon is 570000 M⁻¹ s⁻¹.

B9: His6-Z12289 (designed binder)
chain: MGSSHHHHHHLQVDAKYAKEADDAAYEIAGLPNLTWDQWYAFIEKLRDDPSQSSELLSEAKKLNDSQAPKVD
Regarding B9, the “IC50 … NHDF cells” value with human IL-17A [1] came to 18 nM. In the assay with human IL-17A [2], the Kd amounted to 5.3 nM, the koff was found to be 0.0033 s⁻¹ and the kon was 620000 M⁻¹ s⁻¹.

B10: His6-Z12481 (designed binder)
chain: MGSSHHHHHHLQVDAKYAKEADDAAVEIADLPNLTWDQWWAFILKLRDDPSQSSELLSEAKKLNDSQAPKVD
As to B10, the “IC50 … NHDF cells” value with human IL-17A [1] was 3 nM. In the assay with human IL-17A [2], this molecule came in with a dissociation constant (Kd) of 1.7 nM, an off-rate constant (koff) of 0.00089 s⁻¹ and a kon of 520000 M⁻¹ s⁻¹.

B11: His6-Z12634 (designed binder)
chain: MGSSHHHHHHLQVDAKYAKEADRAAVEIADLPNLTWDQWYAFIEKLRDDPSQSSELLSEAKKLNDSQAPKVD
For the molecule B11, the “IC50 … NHDF cells” value with human IL-17A [1] came out at 9.8 nM. In the assay with human IL-17A [2], this molecule had an equilibrium dissociation constant (Kd) of 6.3 nM, a dissociation rate constant (koff) of 0.0043 s⁻¹ and an on-rate (kon) of 690000 M⁻¹ s⁻¹.

B12: His6-Z10433 (designed binder)
chain: MGSSHHHHHHLQVDAKYAKEADDAAFEIAALPNLTWDQWYAFIIKLRDDPSQSSELLSEAKKLNDSQAPKVD
As for B12, in the assay with human IL-17A [1], the “IC50 … NHDF cells” value amounted to 14 nM. In the assay with human IL-17A [2], this molecule had a Kd of 6.4 nM, a koff of 0.0031 s⁻¹ and an association rate constant (kon) of 470000 M⁻¹ s⁻¹.

B13: His6-Z12211 (designed binder)
chain: MGSSHHHHHHLQVDAKYAKEADEAAVEIADLPNLTWDQWWAFINKLRDDPSQSSELLSEAKKLNDSQAPKVD
For the molecule B13, the “IC50 … NHDF cells” value with human IL-17A [1] amounted to 2.9 nM. In the assay with human IL-17A [2], this molecule had an equilibrium dissociation constant (Kd) of 2.4 nM, a koff of 0.0014 s⁻¹ and an association rate constant (kon) of 580000 M⁻¹ s⁻¹.

B14: His6-Z12081 (designed binder)
chain: MGSSHHHHHHLQVDAKYAKEADDAALEIADLPNLTWDQWWAFISKLRDDPSQSSELLSEAKKLNDSQAPKVD
Regarding B14, the “IC50 … NHDF cells” value with human IL-17A [1] is 8.1 nM. In addition, in the assay with human IL-17A [2], the equilibrium dissociation constant (Kd) was 6.2 nM, the koff worked out at 0.0038 s⁻¹ and the kon was found to be 620000 M⁻¹ s⁻¹.

B15: His6-Z12522 (designed binder)
chain: MGSSHHHHHHLQVDAKYAKEADRAAVEIADLPNLTWDQWWAFIEKLRDDPSQSSELLSEAKKLNDSQAPKVD
For the molecule B15, in the assay with human IL-17A [1], the “IC50 … NHDF cells” value amounted to 10 nM. In the assay with human IL-17A [2], the dissociation constant Kd turned out to be 6.2 nM, the koff turned out to be 0.0044 s⁻¹ and the kon is 710000 M⁻¹ s⁻¹.

B16: His6-Z10863 (designed binder)
chain: MGSSHHHHHHLQVDAKYAKEADQAAVEIADLPNLTWAQWYAFIQKLRDDPSQSSELLSEAKKLNDSQAPKVD
With B16, the “IC50 … NHDF cells” value in the assay with human IL-17A [1] is 8.5 nM. In the assay with human IL-17A [2], binding was put at a Kd of 3 nM, the off-rate (koff) was determined as 0.0025 s⁻¹ and the kon worked out at 830000 M⁻¹ s⁻¹.

B17: His6-Z12498 (designed binder)
chain: MGSSHHHHHHLQVDAKYAKEADDAAYEIASLPNLTWDQWWAFIGKLRDDPSQSSELLSEAKKLNDSQAPKVD
Take B17: in the assay with human IL-17A [1], the “IC50 … NHDF cells” value turned out to be 11 nM. Further, in the assay with human IL-17A [2], the Kd is 3.8 nM, the koff came to 0.0023 s⁻¹ and the kon was determined as 600000 M⁻¹ s⁻¹.

B18: His6-Z10566 (designed binder)
chain: MGSSHHHHHHLQVDAKYAKEADDAAIEIASLPNLTWDQWYAFIGKLRDDPSQSSELLSEAKKLNDSQAPKVD
For B18, the “IC50 … NHDF cells” value with human IL-17A [1] stood at 9.6 nM. Also, in the assay with human IL-17A [2], the equilibrium dissociation constant (Kd) amounted to 9.3 nM, the off-rate constant (koff) was 0.0057 s⁻¹ and the on-rate constant (kon) is 610000 M⁻¹ s⁻¹.

B19: His6-Z12078 (designed binder)
chain: MGSSHHHHHHLQVDAKYAKEADDAAYEIAYLPNLTWDQWFAFITKLRDDPSQSSELLSEAKKLNDSQAPKVD
Regarding B19, the “IC50 … NHDF cells” value in the assay with human IL-17A [1] came to 4.5 nM. Also, in the assay with human IL-17A [2], binding was characterised by a dissociation constant (Kd) of 1.8 nM, the koff is 0.00081 s⁻¹ and the on-rate constant (kon) came out at 450000 M⁻¹ s⁻¹.

B20: His6-Z12163 (designed binder)
chain: MGSSHHHHHHLQVDAKYAKEADQAAYEIAFLPNLTWDQWFAFINKLRDDPSQSSELLSEAKKLNDSQAPKVD
With B20, the “IC50 … NHDF cells” value with human IL-17A [1] was 7 nM. In the assay with human IL-17A [2], this molecule had a dissociation constant Kd of 2.2 nM, a koff of 0.0016 s⁻¹ and a kon of 730000 M⁻¹ s⁻¹.

B21: His6-Z12283 (designed binder)
chain: MGSSHHHHHHLQVDAKYAKEADDAAYEIAFLPNLTWEQWFAFIDKLRDDPSQSSELLSEAKKLNDSQAPKVD
B21: the “IC50 … NHDF cells” value with human IL-17A [1] was 6.9 nM. In addition, in the assay with human IL-17A [2], the affinity, expressed as Kd, was 3.3 nM; the off-rate (koff) was determined as 0.0018 s⁻¹; the association rate constant (kon) turned out to be 550000 M⁻¹ s⁻¹.

B22: His6-Z12077 (designed binder)
chain: MGSSHHHHHHLQVDAKYAKEADLAAVEIADLPNLTWDQWWAFIQKLRDDPSQSSELLSEAKKLNDSQAPKVD
Take B22: in the assay with human IL-17A [1], the “IC50 … NHDF cells” value was 5.5 nM. In the assay with human IL-17A [2], this molecule returned an equilibrium dissociation constant (Kd) of 3.1 nM, an off-rate constant (koff) of 0.002 s⁻¹ and a kon of 650000 M⁻¹ s⁻¹.

B23: His6-Z12264 (designed binder)
chain: MGSSHHHHHHLQVDAKYAKEADDAAYEIAFLPNLTWDQWWAFIQKLRDDPSQSSELLSEAKKLNDSQAPKVD
For B23, the “IC50 … NHDF cells” value with human IL-17A [1] is 4.4 nM. In addition, in the assay with human IL-17A [2], the affinity, expressed as Kd, was 0.93 nM; the koff came to 0.00055 s⁻¹; the kon came out at 600000 M⁻¹ s⁻¹.

B24: His6-Z12060 (designed binder)
chain: MGSSHHHHHHLQVDAKYAKEADAAAVEIAELPNLTWDQWWAFINKLRDDPSQSSELLSEAKKLNDSQAPKVD
Regarding B24, the “IC50 … NHDF cells” value in the assay with human IL-17A [1] worked out at 7.9 nM. In the assay with human IL-17A [2], this molecule displayed a Kd of 4.3 nM, a koff of 0.0033 s⁻¹ and a kon of 750000 M⁻¹ s⁻¹.

B25: His6-Z12344 (designed binder)
chain: MGSSHHHHHHLQVDAKYAKEADDAAVEIAYLPNLTWDQWWAFIRKLRDDPSQSSELLSEAKKLNDSQAPKVD
Take B25: the “IC50 … NHDF cells” value with human IL-17A [1] stood at 4.8 nM. In the assay with human IL-17A [2], this molecule came in with an equilibrium dissociation constant (Kd) of 0.92 nM, an off-rate (koff) of 0.00066 s⁻¹ and a kon of 710000 M⁻¹ s⁻¹.

B26: His6-Z12073 (designed binder)
chain: MGSSHHHHHHLQVDAKYAKEADDAAVEIADLPNLTWDQWYAFITKLRDDPSQSSELLSEAKKLNDSQAPKVD
Consider B26, for which the “IC50 … NHDF cells” value in the assay with human IL-17A [1] is 4 nM. In the assay with human IL-17A [2], this molecule gave a Kd of 2.3 nM, an off-rate constant (koff) of 0.0012 s⁻¹ and an association rate constant (kon) of 490000 M⁻¹ s⁻¹.

For orientation: Kd means a measure of binding affinity in units of concentration. In general, koff refers to the first-order rate constant of dissociation. Lower therefore signals slow dissociation. The kon is a measure of how fast the partners come together.
